# In PubChem BioAssay AID588855 (National Center for Advancing Translational Sciences (NCATS), 2011):
# Several values for one entry are separate records, joined by “and”; a condition that tells them apart may be missing. Identical values can stand only once. Out of some 410,000 compounds screened, about 5,000 (1.2%) were called active. This list was built around the results that the source calls inconclusive (neither active nor inactive); the mix of calls is not that of the screen. Calls follow the shape of the dose curve; as a rule, active = well fitted inhibition curve with a large enough effect; inconclusive = small, poorly fitted or top-dose-only effect; inactive = no such curve, though single readings can be large or run the other way. Where the call is inconclusive, the potency comes from a doubtful curve fit.
# Experiment: qHTS for Inhibitors of TGF-b; also: nearly all actives have a fitted effect of over 65% in size
# Settings: HepG2 CAGA-GFP TGF-b/SMAD3 reporter, GFP fluorescence, 18 h, TGF-beta stimulated, 500 pg/mL final; series mostly up to 46.1 µM
# Summary of the method: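 Using HEPG2 CAGA-GFP reporter cells at 1000 cells/well, we pinned test compounds, stimulated with recombinant TGF-beta (500 pg/mL final) and measured total well GFP after 18 h.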
# Potency is read from the fitted curve at half-maximal effect; tags tell the direction and shape of the fitted curve.
row,Structure (SMILES),Potency
1,O=C(Nc1ccnn1C1CCN(C(=O)c2ccc(F)cc2)CC1)C1CCOC1 (configuration not stated),"inconclusive: 2.51 µM [inhibitor, partial curve, poor fit]"
2,COc1cc(Cl)ccc1NC(=O)COc1ccccc1C(=O)NN,"inconclusive: 3.55 µM [inhibitor, single point]"
3,CNc1nnc(-c2ccc(C)cc2)c2ccccc12,"inconclusive: 14.1 µM [inhibitor, partial curve, poor fit]"
4,Cc1cccc(N2CCN(S(=O)(=O)c3ccc4c(c3)C(C)(C)C(=O)N4C)CC2C)c1 (configuration not stated),"inconclusive: 35.5 µM [inhibitor, single point]"
5,Cc1ccccc1CN1C(=O)C(O)(c2c[nH]c3ccccc23)c2cc(Cl)ccc21 (configuration not stated),active: 15.8 µM
6,C=CCOc1ccc(/C=C2\SC(=S)N(NS(=O)(=O)c3ccc(C)cc3)C2=O)cc1,"inconclusive: 17.8 µM [inhibitor, single point]"
7,Cc1coc2cc3oc(=O)c(CCC(=O)N4CCC(C(=O)O)(c5ccccc5)CC4)c(C)c3cc12,inactive
8,COc1cccc(CN2CC34CCC(CC3S2(=O)=O)O4)c1 (configuration not stated),inactive
9,CCn1nc(C(=O)N2CCN(Cc3ccc4c(c3)OCO4)CC2)c2ccccc2c1=O,"inconclusive: 5.01 µM [inhibitor, single point]"
10,Cn1c(=O)c2c(nc(N3CCc4ccccc4C3)n2Cc2ccccc2F)n(C)c1=O,"inconclusive: 0.501 µM [inhibitor, full curve]"
11,O=C(Nc1cccc(C(F)(F)F)c1)c1ccc2nc(-c3ccco3)c(-c3ccco3)nc2c1,"inconclusive: 17.8 µM [inhibitor, single point]"
12,CSc1ccc(S(=O)(=O)NCc2ccc(Cl)cc2Cl)cc1,"inconclusive: 35.5 µM [inhibitor, single point]"
13,O=C(NCCc1ccc(F)cc1)c1ccc([N+](=O)[O-])cc1,inactive
14,CCN1CCN(C(=O)CN(C)S(=O)(=O)c2ccc(OC)c(C)c2)CC1,"inconclusive: 12.6 µM [inhibitor, single point]"
15,O=S(=O)(c1ccc(NC(=S)Nc2ccccc2)cc1)N1CCOCC1,inactive
16,CCCCSc1nc(C(=O)O)cc(=O)[nH]1,inactive
17,CC[C@H](C)[C@@H](C(=O)NCCCCCCCCCCC(=O)N1CCN(C(=O)OC(C)(C)C)CC1)n1cc(CCCCCNC(=O)OC(C)(C)C)nn1,"inconclusive: 3.16 µM [inhibitor, full curve, poor fit]"
18,CCCCN(CC)CCCNC(=O)c1ccc2c(c1)N(Cc1ccc(C)cc1)C(=O)c1ccccc1S2,active: 14.1 µM
19,CCCCCCCN1C/C=C\C(c2ccc(OC)cc2)N(Cc2ccc(F)cc2)C(=O)[C@H]1Cc1ccccc1 (some centres not stated),inactive
20,O=S(=O)(NCCc1csc(-c2cccnc2)n1)c1ccc(Cl)s1,"inconclusive: 6.31 µM [inhibitor, full curve, poor fit]"
21,CCCCC(=O)OCc1cc(=O)n2nc(C3CC3)sc2n1,inactive
22,CCc1ccc(N(CC(=O)Nc2nc3ccc(C)cc3s2)S(=O)(=O)c2c(C)noc2C)cc1,"inconclusive: 35.5 µM [inhibitor, single point]"
23,Cc1ccc(C(O)c2ncc(-c3cccc(C(F)(F)F)c3)[nH]2)cc1F (configuration not stated),"inconclusive: 20 µM [inhibitor, single point]"

row,Structure (SMILES),Potency
1,Cc1nnc(N2CCCC(C(=O)Nc3cc(F)ccc3F)C2)c2nn(-c3ccccc3)c(C)c12 (configuration not stated),"inconclusive: 35.5 µM [inhibitor, partial curve, poor fit] and inconclusive: 12.6 µM [inhibitor, partial curve, poor fit]"
2,O=C(CN1CCN(S(=O)(=O)c2ccccc2F)CC1)Nc1ccccc1C(=O)c1ccccc1,"inconclusive: 14.1 µM [inhibitor, single point]"
3,COC(=O)c1ccc(Cn2c(C)c(C(=O)Nc3cccc(Oc4ccccc4)c3)sc2=O)o1,"inconclusive: 31.6 µM [inhibitor, single point]"
4,COc1ccc(S(=O)(=O)Nc2cccc(F)c2)cc1C,inactive
5,COc1cc(/C=C/CO)cc(OC)c1OC/C=C(\C)CCC=C(C)C,"inconclusive: 35.5 µM [inhibitor, single point]"
6,CCCCCCCNC(=O)C1(CC2CC(c3cccc(Br)c3)=NO2)CCN(C(=O)C2CCCC2)CC1 (configuration not stated),"inconclusive: 35.5 µM [inhibitor, single point]"
7,O=C(Nc1ccc(N2CCN(C(=O)c3ccc(Cl)cc3)CC2)cc1)c1ccc([N+](=O)[O-])o1,active: 7.08 µM
8,CCOC(=O)C1=C(C)N(C[C@@H]2CC[C@@H](Cc3ccc4cc(OC)ccc4c3)O2)C(=O)NC1c1ccccc1 (some centres not stated),"inconclusive: 35.5 µM [inhibitor, single point]"
9,O=C(NCc1ccccc1)C1=C[C@@H](c2ccc(C(F)(F)F)cc2)C[C@@H](OCc2ccc(CO)cc2)O1,"inconclusive: 15.8 µM [inhibitor, single point]"
10,COc1ccc(NC(=O)Nc2ccc(O)c3ccccc23)cc1,active: 6.31 µM
11,CC(C)(CO)Cc1cc(C(C)(C)C)c(O)c(C(C)(C)C)c1,"inconclusive: 35.5 µM [inhibitor, single point]"
12,C=CCn1c(=O)c2c3c(sc2n2c(Nc4ccc(OC)cc4)nnc12)CCCC3,"inconclusive: 25.1 µM [inhibitor, single point]"
13,CCCC(c1nnnn1Cc1ccccc1)N1CCN(c2ccccc2OC)CC1 (configuration not stated),inactive
14,CC1=CCC(C(=O)N/N=C/c2cccs2)C(c2ccc(F)cc2)C1 (configuration not stated),"inconclusive: 22.4 µM [inhibitor, single point]"
15,CCOC(=O)c1ccc(S(=O)(=O)N2CCC(C(=O)NCC3CCCCC3)CC2)cc1,inactive
16,O=C1CC(N2CCN(c3ccccc3)CC2)C(=O)N1c1ccc2c(c1)OCO2 (configuration not stated),"inconclusive: 3.55 µM [inhibitor, single point]"
17,CCOC(=O)c1sc2nc(C)nc(SC(C)C(=O)N(C)c3ccccc3)c2c1C (configuration not stated),"inconclusive: 5.62 µM [inhibitor, full curve, poor fit]"
18,CCCn1c(=S)[nH]c2cc(C(=O)N(CCO)Cc3ccccc3)ccc2c1=O,"inconclusive: 12.6 µM [inhibitor, partial curve, poor fit]"
19,Nc1nc(CSC(=S)N2CCOCC2)nc(Nc2ccccc2)n1,"inconclusive: 2.82 µM [inhibitor, partial curve, poor fit]"
20,CC(=O)c1c(C)[nH]c(C(=O)OCC(=O)N2c3ccccc3NC(=O)C2(C)C)c1C,inactive
21,CC(C)(C)S(=O)(=O)/C(C#N)=N/Nc1ccc(Cl)cc1,"inconclusive: 11.2 µM [inhibitor, partial curve]"
22,O=[N+]([O-])c1cc(Cl)ccc1Sc1ccccn1,inactive
23,CCOc1ccc2nc(SCC(=O)c3ccc(Cl)s3)sc2c1,"inconclusive: 14.1 µM [inhibitor, single point]"

row,Structure (SMILES),Potency
1,Cc1nc(N2CCN(c3ccccn3)CC2)c2c(C)c(C(=O)Nc3ccc(Br)cc3C)sc2n1,inactive
2,Cn1c(=O)c2c(nc(Sc3ncccn3)n2Cc2ccc(Cl)cc2)n(C)c1=O,inactive
3,O=C(C[C@H]1C[C@@H]2c3cc(NC(=O)c4cccnc4)ccc3O[C@@H]2[C@H](CO)O1)NCc1ccncc1,inactive
4,O=S(=O)(c1ccc2c(c1)OCCO2)N1CCC(c2nc3ccccc3s2)CC1,"inconclusive: 7.08 µM [inhibitor, partial curve, poor fit]"
5,COc1ccc2cc3c(N)c(C(=O)N4CCCC4)sc3nc2c1,"inconclusive: 35.5 µM [inhibitor, single point]"
6,Cc1cc(-c2nn(-c3ccccc3F)cc2CNCCc2cnc[nH]2)c(C)s1,"inconclusive: 35.5 µM [inhibitor, single point]"
7,Cc1ccc(C(N)=S)c(C)c1,"inconclusive: 0.631 µM [inhibitor, full curve, poor fit]"
8,O=C(Nc1cc(Cl)cc(Cl)c1)N1CCN(C(=O)C2CCCO2)CC1 (configuration not stated),inactive
9,COc1ccc(C2CC(c3cccc(Cl)c3)=NN2c2ccc(S(N)(=O)=O)cc2)cc1 (configuration not stated),"inconclusive: 35.5 µM [inhibitor, single point]"
10,CSc1ccc(/C=N/NC(=O)c2ccc(O)cc2)cc1,inactive
11,CCCCN(C)C(=O)c1nc2ccccn2c1CN1CCSCC1,"inconclusive: 3.16 µM [inhibitor, full curve, poor fit]"
12,N#C/C(=C\Nc1ccccc1O)c1nc2ccccc2o1,"inconclusive: 11.2 µM [inhibitor, single point]"
13,CC(C)(C)n1ncc2c(=O)n(Cc3cccc(-c4cccs4)c3)cnc21,"inconclusive: 22.4 µM [inhibitor, single point]"
14,CC1CCCN(C(=O)c2ccc(CSc3nc4ccncc4n3Cc3ccccc3)cc2)C1 (configuration not stated),"inconclusive: 17.8 µM [inhibitor, partial curve, poor fit]"
15,Cc1cc2ccccc2n1CCNC(=O)c1cccs1,inactive
16,O=C(NCc1ccc(Cl)cc1)c1cc2cccc3c2n1CCS3,"inconclusive: 35.5 µM [inhibitor, single point]"
17,C=C(C)COc1ccc(-c2[nH]ncc2-c2ccc(OC)c(OC)c2)c(O)c1,"inconclusive: 11.2 µM [inhibitor, partial curve, poor fit]"
18,COC(=O)c1ccccc1NC(=O)CSc1ncn[nH]1,inactive
19,c1ccc(NC2=NCCN2CCCC2CCCC2)cc1,inactive
20,Cc1nc2nc(SCC(=O)NCCCN3CCCC3)nn2c(C)c1Cc1ccccc1Cl,inactive
21,Cc1cccc(-c2noc(CCCC(=O)N3CCOCC3)n2)c1,inactive
